Experimental data reported in publication PMC5700166.
The list shows a part of the results, in another mix than the full data. The list includes weakly bound sequences.

Experiments:
Assay in all cases: protein-binding microarray (PBM)
Details in all cases: PBM: ~300 nM protein, 6 mM HEPES pH 7.8, 80 mM KCl, 0.5 mM EDTA, 0.5 mM EGTA, 6% glycerol, 35 ng/ul poly-dIdC, 1% milk, 1 h, room temperature; Ap Aiptasia and Nv Nematostella (sea anemones) / Co Capsaspora / Aq Amphimedon (sponge) / Dm Drosophila / Hu human; RHD is the Rel homology domain; high values mean tight binding; most listed sequences are background and not binding sites; double strand, one strand shown
GST-Ap-NF-kB RHD = target: T1, GST-Ap-NF-kB RHD (UniProt A0A913YAJ5)
T1 sequence: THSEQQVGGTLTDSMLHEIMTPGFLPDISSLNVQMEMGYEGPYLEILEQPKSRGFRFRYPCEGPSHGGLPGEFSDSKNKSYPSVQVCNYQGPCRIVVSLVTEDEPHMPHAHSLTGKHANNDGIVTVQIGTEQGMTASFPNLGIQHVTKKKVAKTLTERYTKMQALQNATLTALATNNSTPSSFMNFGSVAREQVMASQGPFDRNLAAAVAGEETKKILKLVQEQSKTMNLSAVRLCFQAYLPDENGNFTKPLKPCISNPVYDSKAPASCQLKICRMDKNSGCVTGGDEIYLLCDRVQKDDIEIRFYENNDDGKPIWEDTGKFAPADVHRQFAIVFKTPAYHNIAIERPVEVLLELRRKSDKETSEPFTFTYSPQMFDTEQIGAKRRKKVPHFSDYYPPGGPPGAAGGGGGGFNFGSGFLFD

[1] = target: T2, GST-Nv-NF-kB (Cys allele) (UniProt E5G601)
T2 sequence: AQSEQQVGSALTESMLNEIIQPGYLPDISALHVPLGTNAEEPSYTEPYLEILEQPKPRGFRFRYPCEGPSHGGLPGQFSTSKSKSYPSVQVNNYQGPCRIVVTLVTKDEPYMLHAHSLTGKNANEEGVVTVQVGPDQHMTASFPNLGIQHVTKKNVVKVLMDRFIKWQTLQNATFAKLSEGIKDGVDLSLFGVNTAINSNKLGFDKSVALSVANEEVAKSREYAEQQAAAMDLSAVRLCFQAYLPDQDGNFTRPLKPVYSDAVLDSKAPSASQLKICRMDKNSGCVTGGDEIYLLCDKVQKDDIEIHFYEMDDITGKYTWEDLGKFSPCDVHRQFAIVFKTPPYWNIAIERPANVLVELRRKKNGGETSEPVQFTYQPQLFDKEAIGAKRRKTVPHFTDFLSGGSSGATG

GST-Co-NF-kB = target: T3, GST-Co-NF-kB (UniProt F1ARL5)
T3 sequence: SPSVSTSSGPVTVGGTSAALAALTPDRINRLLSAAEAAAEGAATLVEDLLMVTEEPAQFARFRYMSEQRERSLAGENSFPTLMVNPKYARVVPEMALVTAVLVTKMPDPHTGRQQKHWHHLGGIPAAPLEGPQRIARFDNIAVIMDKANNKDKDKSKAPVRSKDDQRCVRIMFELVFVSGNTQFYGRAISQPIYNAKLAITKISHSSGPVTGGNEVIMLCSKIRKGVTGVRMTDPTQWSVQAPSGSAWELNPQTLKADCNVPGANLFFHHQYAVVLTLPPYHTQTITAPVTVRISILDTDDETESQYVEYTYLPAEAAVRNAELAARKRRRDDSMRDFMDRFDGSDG

GST-Dm-Relish = target: T4, GST-Dm-Relish (UniProt Q94527)
T4 sequence: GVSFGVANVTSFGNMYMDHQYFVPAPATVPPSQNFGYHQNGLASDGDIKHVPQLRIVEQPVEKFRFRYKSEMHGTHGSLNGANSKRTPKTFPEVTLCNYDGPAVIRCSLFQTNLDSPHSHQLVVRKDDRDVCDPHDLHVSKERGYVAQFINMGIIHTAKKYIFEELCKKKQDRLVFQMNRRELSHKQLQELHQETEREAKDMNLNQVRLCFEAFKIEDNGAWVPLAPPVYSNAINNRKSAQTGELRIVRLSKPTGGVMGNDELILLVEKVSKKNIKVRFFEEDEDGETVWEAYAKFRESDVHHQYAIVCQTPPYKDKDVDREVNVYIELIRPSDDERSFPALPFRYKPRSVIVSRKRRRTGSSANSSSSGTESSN

GST-Aq-NF-kB = target: T5, GST-Aq-NF-kB (UniProt A9Y5G7)
T5 sequence: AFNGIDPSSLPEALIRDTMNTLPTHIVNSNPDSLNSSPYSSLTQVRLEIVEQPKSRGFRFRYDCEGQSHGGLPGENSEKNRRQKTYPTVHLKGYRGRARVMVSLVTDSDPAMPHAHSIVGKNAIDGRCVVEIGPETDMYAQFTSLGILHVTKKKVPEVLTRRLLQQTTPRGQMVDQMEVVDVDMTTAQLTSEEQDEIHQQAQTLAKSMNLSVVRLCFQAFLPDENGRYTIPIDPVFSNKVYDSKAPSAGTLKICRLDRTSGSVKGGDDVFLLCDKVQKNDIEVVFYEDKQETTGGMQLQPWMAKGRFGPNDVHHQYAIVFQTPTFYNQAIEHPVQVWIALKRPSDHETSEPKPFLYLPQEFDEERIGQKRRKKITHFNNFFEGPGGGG

Sequence | binding signal (GST-Ap-NF-kB RHD) | binding signal [1] | binding signal (GST-Co-NF-kB) | binding signal (GST-Dm-Relish) | binding signal (GST-Aq-NF-kB)
CCGATTAACATCAGATGCACACATGATGTTAATCGGGTCTTGATTCGCTTGACGCTGCTG | -0.0677 z-score | -0.243 z-score | -0.00417 z-score | -0.236 z-score | -0.263 z-score
CCGATTAACATCATACAACTCCATGATGTTAATCGGGTCTTGATTCGCTTGACGCTGCTG | -0.236 z-score | -0.477 z-score | 0.229 z-score | -0.749 z-score | -0.109 z-score
CCGATTAACATCAGGAAAAGCCATGATGTTAATCGGGTCTTGATTCGCTTGACGCTGCTG | 0.196 z-score | -0.0861 z-score | 0.305 z-score | 0.177 z-score | 0.917 z-score
CCGATTAACATCAGTCATGTTTCTGATGTTAATCGGGTCTTGATTCGCTTGACGCTGCTG | -0.289 z-score | -0.124 z-score | -0.251 z-score | -0.782 z-score | -0.34 z-score
CCGATTAACATCAGGGCGTTCCATGATGTTAATCGGGTCTTGATTCGCTTGACGCTGCTG | 0.215 z-score | 0.00426 z-score | -1.18 z-score | 0.175 z-score | 0.537 z-score
CCGATTAACATCAGAGTGCGAACTGATGTTAATCGGGTCTTGATTCGCTTGACGCTGCTG | -0.609 z-score | -0.208 z-score | -1.12 z-score | -0.735 z-score | -0.571 z-score
CCGATTAACATCAGTGATTAAGGTGATGTTAATCGGGTCTTGATTCGCTTGACGCTGCTG | -0.31 z-score | 0.429 z-score | 0.552 z-score | 0.152 z-score | 0.274 z-score
CCGATTAACATCACAGGCCCGGCTGATGTTAATCGGGTCTTGATTCGCTTGACGCTGCTG | 0.589 z-score | -0.958 z-score | -0.112 z-score | -0.263 z-score | 0.286 z-score
CCGATTAACATCACTTACGAATTTGATGTTAATCGGGTCTTGATTCGCTTGACGCTGCTG | -0.694 z-score | -0.0654 z-score | 0.239 z-score | -0.112 z-score | -0.283 z-score
